T1: Mouse GLP-1R (mouse, UniProt O35659 22-463)
T1 sequence (looked up): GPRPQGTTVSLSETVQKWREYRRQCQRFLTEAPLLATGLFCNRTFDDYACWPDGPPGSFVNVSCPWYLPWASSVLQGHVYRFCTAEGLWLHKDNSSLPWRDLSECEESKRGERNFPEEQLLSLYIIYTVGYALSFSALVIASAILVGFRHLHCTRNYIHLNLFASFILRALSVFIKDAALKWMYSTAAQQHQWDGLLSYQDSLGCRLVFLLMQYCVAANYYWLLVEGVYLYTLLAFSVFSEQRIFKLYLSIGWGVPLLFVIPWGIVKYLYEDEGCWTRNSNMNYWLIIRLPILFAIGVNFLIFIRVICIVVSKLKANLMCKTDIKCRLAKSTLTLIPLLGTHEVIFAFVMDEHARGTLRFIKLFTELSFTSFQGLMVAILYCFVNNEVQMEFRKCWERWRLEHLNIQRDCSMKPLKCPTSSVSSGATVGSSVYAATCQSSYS

B1: GLP-1RA/FGF21 Fc fusion protein SEQ ID NO: 39 (Fc fusion)
chain: HGEGTFTSDLSIQLEEEAVQEFIEWLLATGPSSGAPPPSGGGGGGGSGGGGSGGGGSA[… human IgG1 Fc with changes …]GGGSGSAHPIPDSSPLLQFGGQVRQRYLYTDDACQTEAHLEIREDGTVGGAADQSPESLLQLKALKPGVIQILGVKTSRFLCQRPDGALYGSLHFDPEACSFRELLLEDGYNVYQSEAHGLPLHLPGCKSPHRDPAPRGPARFLPLPGLPPAPPEPPGILAPQPPDVGSSDPLSMVGSQGRSPSYAS
B2: GLP-1RA/FGF21 Fc fusion protein SEQ ID NO: 19 (Fc fusion)
chain: HGEGTFTSDLSKQLEEERVQEFIEWLKAGGPSSGAPPPSGGGGGGGSGGGGSGGGGSA[… human IgG4 Fc with changes …]GGGSGSAHPIPDSSPLLQFGGQVRQRYLYTDDACQTEAHLEIREDGTVGGAADQSPESLLQLKALKPGVIQILGVKTSRFLCQRPDGALYGSLHFDPEACSFRELLLEDGYNVYQSEAHGLPLHLCGNKSPHRDPAPRGPARFLPLPGLPPAPPEPPGILAPQPPDVGSSDPLSMVYPSQGRSPSYAS
B3: GLP-1RA/FGF21 Fc fusion protein SEQ ID NO: 40 (Fc fusion)
chain: GHGEGTFTSDLSIQLEEEAVRLFIEWLLAGGPSSGAPPPSGGGGGGGSGGGGSGGGGSA[… human IgG1 Fc with changes …]GGGSGSAHPIPDSSPLLQFGGQVRQRYLYTDDACQTEAHLEIREDGTVGGAADQSPESLLQLKALKPGVIQILGVKTSRFLCQRPDGALYGSLHFDPEACSFRELLLEDGYNVYQSEAHGLPLHLPGCKSPHRDPAPRGPARFLPLPGLPPAPPEPPGILAPQPPDVGSSDPLSMVGSQGRSPSYAS
B4: GLP-1RA/FGF21 Fc fusion protein SEQ ID NO: 21 (Fc fusion)
chain: HGEGTFTSDLSIQLEEEAVQEFIEWLLATGPSSGAPPPSGGGGGGGSGGGGSGGGGSA[… human IgG4 Fc with changes …]GGGSGSAHPIPDSSPLLQFGGQVRQRYLYTDDACQTEAHLEIREDGTVGGAADQSPESLLQLKALKPGVIQILGVKTSRFLCQRPDGALYGSLHFDPEACSFRELLLEDGYNVYQSEAHGLPLHLCGNKSPHRDPAPRGPARFLPLPGLPPAPPEPPGILAPQPPDVGSSDPLSMVGSQGRSPSYAS
B5: GLP-1RA/FGF21 Fc fusion protein SEQ ID NO: 1 (Fc fusion)
chain: HGEGTFTSDLSKQLEEERVQLFIEWLKATGPSSGAPPPSGGGGGGGSGGGGSGGGGSA[… human IgG1 Fc with changes …]GGGSGSAHPIPDSSPLLQFGGQVRQRYLYTDDACQTEAHLEIREDGTVGGAADQSPESLLQLKALKPGVIQILGVKTSRFLCQRPDGALYGSLHFDPEACSFRELLLEDGYNVYQSEAHGLPLHLPGCKSPHRDPAPRGPARFLPLPGLPPAPPEPPGILAPQPPDVGSSDPLSMVGSQGRSPSYAS
B6: GLP-1RA/FGF21 Fc fusion protein SEQ ID NO: 18 (Fc fusion)
chain: HGEGTFTSDLSKQLEEERVQEFIEWLKAGGPSSGAPPPSGGGGGGGSGGGGSGGGGSA[… human IgG4 Fc with changes …]GGGSGSAHPIPDSSPLLQFGGQVRQRYLYTDDACQTEAHLEIREDGTVGGAADQSPESLLQLKALKPGVIQILGVKTSRFLCQRPDGALYGSLHFDPEACSFRELLLEDGYNVYQSEAHGLPLHLCGNKSPHRDPAPRGPARFLPLPGLPPAPPEPPGILAPQPPDVGSSDPLSMVGSQGRSPSYAS
B7: GLP-1RA/FGF21 Fc fusion protein SEQ ID NO: 4 (Fc fusion)
chain: HGEGTFTSDLSKQLEEERVQLFIEWLKATGPSSGAPPPSGGGGGGGSGGGGSGGGGSA[… human IgG4 Fc with changes …]GGGSGSAHPIPDSSPLLQFGGQVRQRYLYTDDACQTEAHLEIREDGTVGGAADQSPESLLQLKALKPGVIQILGVKTSRFLCQRPDGALYGSLHFDPEACSFRELLLEDGYNVYQSEAHGLPLHLPGCKSPHRDPAPRGPARFLPLPGLPPAPPEPPGILAPQPPDVGSSDPLSMVGSQGRSPSYAS
B8: GLP-1RA/FGF21 Fc fusion protein SEQ ID NO: 6 (Fc fusion)
chain: HGEGTFTSDLSKQLEEERVQLFIEWLKATGPSSGAPPPSGGGGGGGSGGGGSGGGGSA[… human IgG4 Fc with changes …]GGGSGSAHPIPDSSPLLQFGGQVRQRYLYTDDACQTEAHLEIREDGTVGGAADQSPESLLQLKALKPGVIQILGVKTSRFLCQRPDGALYGSLHFDPEACSFRELLLEDGYNVYQSEAHGLPLHLPGCKSPHRDPAPRGPARFLPLPGLPPAPPEPPGILAPQPPDVGSSDPLSMVYPSQGRSPSYAS
B9: GLP-1RA/FGF21 Fc fusion protein SEQ ID NO: 2 (Fc fusion)
chain: HGEGTFTSDLSKQLEEERVQLFIEWLKATGPSSGAPPPSGGGGGGGSGGGGSGGGGSA[… human IgG1 Fc with changes …]GGGSGSAHPIPDSSPLLQFGGQVRQRYLYTDDACQTEAHLEIREDGTVGGAADQSPESLLQLKALKPGVIQILGVKTSRFLCQRPDGALYGSLHFDPEACSFRELLLEDGYNVYQSEAHGLPLHLPGCKSPHRDPAPRGPARFLPLPGLPPAPPEPPGILAPQPPDVGSSDPLSMVYPSQGRSPSYAS
B10: GLP-1RA/FGF21 Fc fusion protein SEQ ID NO: 22 (Fc fusion)
chain: HGEGTFTSDLSIQLEEEAVQEFIEWLLATGPSSGAPPPSGGGGGGGSGGGGSGGGGSA[… human IgG4 Fc with changes …]GGGSGSAHPIPDSSPLLQFGGQVRQRYLYTDDACQTEAHLEIREDGTVGGAADQSPESLLQLKALKPGVIQILGVKTSRFLCQRPDGALYGSLHFDPEACSFRELLLEDGYNVYQSEAHGLPLHLCGNKSPHRDPAPRGPARFLPLPGLPPAPPEPPGILAPQPPDVGSSDPLSMVYPSQGRSPSYAS
B11: GLP-1RA/FGF21 Fc fusion protein SEQ ID NO: 171 (Fc fusion)
chain: HGEGTFTSDKSKQLAKRLVRLFIEWLIKGGPSSGAPPPSGGGGGGGSGGGGSGGGGSA[… human IgG4 Fc with changes …]GGGSGSAHPIPDSSPLLQFGGQVRQRYLYTDDACQTEAHLEIREDGTVGGAADQSPESLLQLKALKPGVIQILGVKTSRFLCQRPDGALYGSLHFDPEACSFRELLLEDGYNVYQSEAHGLPLHLPGCKSPHRDPAPRGPARFLPLPGLPPAPPEPPGILAPQPPDVGSSDPLSMVGSQGRSPSYAS
B12: GLP-1RA/FGF21 Fc fusion protein SEQ ID NO: 96 (Fc fusion)
chain: HGEGTFTSDLSILLEEEAVRLFIEWLLATGPSSGAPPPSGGGGGGGSGGGGSGGGGSA[… human IgG4 Fc with changes …]GGGSGSAHPIPDSSPLLQFGGQVRQRYLYTDDACQTEAHLEIREDGTVGGAADQSPESLLQLKALKPGVIQILGVKTSRFLCQRPDGALYGSLHFDPEACSFRELLLEDGYNVYQSEAHGLPLHLPGCKSPHRDPAPRGPARFLPLPGLPPAPPEPPGILAPQPPDVGSSDPLSMVGSQGRSPSYAS
B13: GLP-1RA/FGF21 Fc fusion protein SEQ ID NO: 89 (Fc fusion)
chain: HGEGTFTSDLSILLDEEAVRLFIEWLLATGPSSGAPPPSGGGGGGGSGGGGSGGGGSA[… human IgG4 Fc with changes …]GGGSGSAHPIPDSSPLLQFGGQVRQRYLYTDDACQTEAHLEIREDGTVGGAADQSPESLLQLKALKPGVIQILGVKTSRFLCQRPDGALYGSLHFDPEACSFRELLLEDGYNVYQSEAHGLPLHLPGCKSPHRDPAPRGPARFLPLPGLPPAPPEPPGILAPQPPDVGSSDPLSMVGSQGRSPSYAS
B14: GLP-1RA/FGF21 Fc fusion protein SEQ ID NO: 95 (Fc fusion)
chain: HGEGTFTSDLSILLEEEAVREFIEWLLATGPSSGAPPPSGGGGGGGSGGGGSGGGGSA[… human IgG4 Fc with changes …]GGGSGSAHPIPDSSPLLQFGGQVRQRYLYTDDACQTEAHLEIREDGTVGGAADQSPESLLQLKALKPGVIQILGVKTSRFLCQRPDGALYGSLHFDPEACSFRELLLEDGYNVYQSEAHGLPLHLPGCKSPHRDPAPRGPARFLPLPGLPPAPPEPPGILAPQPPDVGSSDPLSMVGSQGRSPSYAS
B15: GLP-1RA/FGF21 Fc fusion protein SEQ ID NO: 90 (Fc fusion)
chain: HGEGTFTSDLSILLDEEAVQLFIEWLLATGPSSGAPPPSGGGGGGGSGGGGSGGGGSA[… human IgG4 Fc with changes …]GGGSGSAHPIPDSSPLLQFGGQVRQRYLYTDDACQTEAHLEIREDGTVGGAADQSPESLLQLKALKPGVIQILGVKTSRFLCQRPDGALYGSLHFDPEACSFRELLLEDGYNVYQSEAHGLPLHLPGCKSPHRDPAPRGPARFLPLPGLPPAPPEPPGILAPQPPDVGSSDPLSMVGSQGRSPSYAS
B16: GLP-1RA/FGF21 Fc fusion protein SEQ ID NO: 174 (Fc fusion)
chain: HGEGTFTSDLSKQLAKRLVREFIEWLIEGGPSSGAPPPSGGGGGGGSGGGGSGGGGSA[… human IgG4 Fc with changes …]GGGSGSAHPIPDSSPLLQFGGQVRQRYLYTDDACQTEAHLEIREDGTVGGAADQSPESLLQLKALKPGVIQILGVKTSRFLCQRPDGALYGSLHFDPEACSFRELLLEDGYNVYQSEAHGLPLHLPGCKSPHRDPAPRGPARFLPLPGLPPAPPEPPGILAPQPPDVGSSDPLSMVGSQGRSPSYAS
B17: GLP-1RA/FGF21 Fc fusion protein SEQ ID NO: 88 (Fc fusion)
chain: HGEGTFTSDLSILLDEEAVREFIEWLLATGPSSGAPPPSGGGGGGGSGGGGSGGGGSA[… human IgG4 Fc with changes …]GGGSGSAHPIPDSSPLLQFGGQVRQRYLYTDDACQTEAHLEIREDGTVGGAADQSPESLLQLKALKPGVIQILGVKTSRFLCQRPDGALYGSLHFDPEACSFRELLLEDGYNVYQSEAHGLPLHLPGCKSPHRDPAPRGPARFLPLPGLPPAPPEPPGILAPQPPDVGSSDPLSMVGSQGRSPSYAS

Target: T2, human FGFR1c together with human beta-Klotho (KLB) (human, UniProt P11362; Q86Z14)
Assay: cell-based or functional assay

Binder | pFGFR ICW EC50
B1 | 13.8 nmol/L
B2 | 34.3 nmol/L

Target: Monkey GLP-1R (monkey)
Assay: cell-based or functional assay

Binder | HTRF cAMP EC50
B3 | 0.0504 nM
B1 | 0.0123 nM
B4 | 0.0787 nM
B5 | 0.161 nM
B6 | 0.0102 nM
B7 | 0.262 nM
B2 | 0.0109 nM
B8 | 0.347 nM
B9 | 0.164 nM
B10 | 0.0739 nM

Target: human glucagon-like peptide-1 (GLP-1) receptor (human, UniProt P43220)
Assay: cell-based or functional assay

Binder | HTRF cAMP EC50
B11 | 0.267 nM
B3 | 0.0461 nM
B1 | 0.0085 nM
B12 | 0.044 nM
B13 | 0.0453 nM
B4 | 0.0938 nM
B5 | 0.219 nM
B14 | 0.0185 nM
B6 | 0.0099 nM
B15 | 0.336 nM
B16 | 0.077 nM
B17 | 0.033 nM
B7 | 0.313 nM
B2 | 0.0112 nM
B8 | 0.383 nM
B9 | 0.194 nM
B10 | 0.0856 nM

Target: T1, Mouse GLP-1R
Assay: cell-based or functional assay

Binder | HTRF cAMP EC50
B3 | 0.039 nM
B1 | 0.00116 nM
B4 | 0.00419 nM
B5 | 0.0028 nM
B6 | 0.00209 nM
B7 | 0.00529 nM
B2 | 0.00216 nM
B8 | 0.00645 nM
B9 | 0.00293 nM
B10 | 0.00388 nM

Target: T2, human FGFR1c together with human …
Assay: cell-based or functional assay
Remark: another data set of the same source

Binder | pERK ICW EC50
B1 | 4.28 nmol/L
B2 | 43.8 nmol/L

Reference: patent publication US20230250147A1 (Sanofi, published 2023)
